The chains are these.
B1: CPEB3 Ribozyme (parent)
chain: UAACAGGGGGCCACAGCAGAAGCGUUCACGUCGCAGCCCCUGUCAGAUUCUGGUGAAUCUGCGAAUUCUGCUGUAUAUCUC

This note sets out measurements from the RNAGym collection of RNA variant scans (doi:10.1093/nar/gkz1192).

The source gives no read counts; variants with many changes may rest on few reads.

In the data set the parent is B1. Kind of data set: self-cleavage, relative activity (ratio to wild type); higher = more cleavage; in vitro, sequencing. The essentials:
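For each CPEB3 ribozyme variant, relative activity is its cleaved/total read fraction divided by the unmutated ribozyme's. Barcoded error-prone PCR libraries were transcribed by T7 RNA polymerase (5 hours, 37°C) and held in DNase I for 15 min before an EDTA stop, with cleavage occurring throughout. Template-switching reverse transcription and Illumina sequencing were used to read the RNAs. A 5-read minimum applied, and results are the mean of three batches.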
Take UAACAGGGGGCCACAGCAGAAGCGUUCACGUCGCAGCCCCUGUCAGAUACUGGCGAAUCUGCGAAUUCUGCAGUAUAUCUC [U49A U54C U72A]: the self-cleavage came out at 0.22.

Regarding UAACAGGGGGCCACAGCAGAAGCGUUCACGUCGCAGCCCCUGUCAGACUCUGGUGAAACUGCGAAUUCUGCAGUAUAUCUC [U48C U58A U72A], the self-cleavage was 0.15. UAACAGGGGGCCACAGCAGAAGCGUUCACGUCGCAGCCCCUGUCAGAUACUGGUGAAACAGCGAAUUCUGCCGUAUAUCUC [U49A U58A U60A U72C]: the self-cleavage amounted to 0.15. As for UAACAGGGGGCCACAGCAGAAGCGUUCACGUCGCAGCCCCUGUCAGAUACUGGUGAAUCCGCGAAUCCUGCUGUAUAUCUC [U49A U60C U67C], the self-cleavage was 0.41.

As to UAACAGGGGGCCACAGCAGAAGCGUUCACGUCGCAGCCCCUGUCAGAUACUGGUGAAUCUGCGAAUUGUGCCGUAUAUCUC [U49A C68G U72C], the self-cleavage stood at 0.29. Next, UAACAGGGGGCCACAGCAGAAGCGUUCACGUCGCAGCCCCUGUCAGAUACUGGUGAAUCUGCGGAUACUGCUGUAUAUCUC [U49A A64G U67A]: 0.14; UAACAGGGGGCCACAGCAGAAGCGUUCACGUCGCAGCCCCUGUCAGAUACAGGCGAAUCUGGGAAUUCUGCUGUAUAUCUC [U49A U51A U54C C62G]: 0.19; UAACAGGGGGCCACAGCAGAAGCGUUCACGUCGCAGCCCCUGUCAGAUACUGGUGAGUCUGCGUAUUCGGCUGUAUAUCUC [U49A A57G A64U U69G]: 0.2. Consider UAACAGGGGGCCACAGCAGAAGCGUUCACGUCGCAGCCCCUGUCAGACUCUGGUGAAUCUGCGAACUCUGCUGUAUUUCUC [U48C U66C A77U], for which the self-cleavage stood at 0.13. Consider UAACAGGGGGCCACAGCAGAAGCGUUCACGUCGCAGCCCCUGUCAGAUACUGGUGAGUCUGCGAGUUCUGCUGUAUAGCUC [U49A A57G A65G U78G], for which the self-cleavage amounted to 0.13. Next, UAACAGGGGGCCACAGCAGAAGCGUUCACGUCGCAGCCCCUGUCAGAUACAGGUGAAUCUGCGAAUUCUGGUGUAUAUCUC [U49A U51A C71G]: 0.2; UAACAGGGGGCCACAGCAGAAGCGUUCACGUCGCAGCCCCUGUCAGAUACUGGUGAAACUGCGACUUCUGCUGUAUAUCUC [U49A U58A A65C]: 0.13; UAACAGGGGGCCACAGCAGAAGCGUUCACGUCGCAGCCCCUGUCAGAUACUGGUGAAUCCGCACAUUCUGCUGUAUAUCUC [U49A U60C G63A A64C]: 0.13.

For the variant UAACAGGGGGCCACAGCAGAAGCGUUCACGUCGCAGCCCCUGUCAGACUCUGGGGGAUCUGCGAAUUCUGCUGCAUAUCUC [U48C U54G A56G U74C], the self-cleavage was determined as 0.41.

Consider UAACAGGGGGCCACAGCAGAAGCGUUCACGUCGCAGCCCCUGUCAGAUACUGGUGAAUCAGCGAAUUCUGCCGUAUAUCAC [U49A U60A U72C U80A], for which the self-cleavage came to 0.2. Next, UAACAGGGGGCCACAGCAGAAGCGUUCACGUCGCAGCCCCUGUCAGACUCUGGUGAAUCUGCGAAUUCUGCUGUAUACUUC [U48C U78C C79U]: 0.77; UAACAGGGGGCCACAGCAGAAGCGUUCACGUCGCAGCCCCUGUCAGACUCUGGGGAAUCUGCGAAUUCCGCUGUAUAUCUC [U48C U54G U69C]: 0.17; UAACAGGGGGCCACAGCAGAAGCGUUCACGUCGCAGCCCCUGUCAGAUACUGGUGGAUCUGCGAAUCCUGCCGUAUAUCCC [U49A A56G U67C U72C U80C]: 0.16.

For the variant UAACAGGGGGCCACAGCAGAAGCGUUCACGUCGCAGCCCCUGUCAGAUACUGGAGAGUCUGCGAGUUCUGCUGUAUAUCUC [U49A U54A A57G A65G], the self-cleavage amounted to 0.1. Next, UAACAGGGGGCCACAGCAGAAGCGUUCACGUCGCAGCCCCUGUCAGAUACUGGUGGAUCUGCGAAUUCCGCUGUAUAUCUC [U49A A56G U69C]: 0.17; UAACAGGGGGCCACAGCAGAAGCGUUCACGUCGCAGCCCCUGUCAGAUACAGGUGAAUCUGCGAAUUCUGCUGUAUAUCAC [U49A U51A U80A]: 0.45; UAACAGGGGGCCACAGCAGAAGCGUUCACGUCGCAGCCCCUGUCAGAUACUGGUGAAUCAGCGAAUUCCGCUGUAUAUCUC [U49A U60A U69C]: 0.15. In the case of UAACAGGGGGCCACAGCAGAAGCGUUCACGUCGCAGCCCCUGUCAGAUACUGGUGAGUCUGCGAAUUCCGCUGUAUGUCUC [U49A A57G U69C A77G] it was 0.16; in that of UAACAGGGGGCCACAGCAGAAGCGUUCACGUCGCAGCCCCUGUCAGACUCUGGUGAAUCUGCGAAUCCUGAUGUAUAUCUC [U48C U67C C71A], 0.27; in that of UAACAGGGGGCCACAGCAGAAGCGUUCACGUCGCAGCCCCUGUCAGACUCUGGUGAAUCUGCGAACUCUACUGUAUAUCUC [U48C U66C G70A], 0.14. Consider UAACAGGGGGCCACAGCAGAAGCGUUCACGUCGCAGCCCCUGUCAGAUACUGGUGUAUCUGCGAAUUCUGCUGUAUAUCAC [U49A A56U U80A], for which the self-cleavage is 1.06. Next, UAACAGGGGGCCACAGCAGAAGCGUUCACGUCGCAGCCCCUGUCAGACUCUGGUGAACCUGCGAAUUCUGCUGUAUAACUC [U48C U58C U78A]: 0.22; UAACAGGGGGCCACAGCAGAAGCGUUCACGUCGCAGCCCCUGUCAGACUCUGGUGAACCUGCGAAUUCUGCUGUAUACCUC [U48C U58C U78C]: 0.17; UAACAGGGGGCCACAGCAGAAGCGUUCACGUCGCAGCCCCUGUCAGAUACUGGUGGAUCUGCGAACUCUGCUGUAUAUCUC [U49A A56G U66C]: 0.29. In the case of UAACAGGGGGCCACAGCAGAAGCGUUCACGUCGCAGCCCCUGUCAGACUCUGGUGAAUCUGCGAAUACCGCAGUUUAUCUC [U48C U67A U69C U72A A75U] it was 0.14. With UAACAGGGGGCCACAGCAGAAGCGUUCACGUCGCAGCCCCUGUCAGAUACUGGUGAAUCUGCGAGUUCUGCUGUAUACCUC [U49A A65G U78C], the self-cleavage was 0.

In the case of UAACAGGGGGCCACAGCAGAAGCGUUCACGUCGCAGCCCCUGUCAGAUACUGGGGAAUCUGCGAAUUCUGGUGUAUACCUC [U49A U54G C71G U78C], the self-cleavage was 0.18. In the case of UAACAGGGGGCCACAGCAGAAGCGUUCACGUCGCAGCCCCUGUCAGAUACUGGUGAAUCUGCGAACUCUGCUGUAUACCUC [U49A U66C U78C] it was 0.15; in that of UAACAGGGGGCCACAGCAGAAGCGUUCACGUCGCAGCCCCUGUCAGAUACUGGUCAAUCUGCGAAUUCUGCUGUAUCUCUC [U49A G55C A77C], 0.69.
